By IC50 is meant the dose at which the fit gives 50% viability; a fit beyond the top or the lowest dose is shown as a bound at that dose. The AUC spans the tested range (256-fold, ending at the top dose) of the same fit; values near 1 show little effect. For some of these results: A top dose marked as inferred was derived from the fitted curves, not read from the paper. For some of these results: Where an entry number is given, a second screen of the drug exists; the two often differ.
What was measured:
Test in all cases: Viability of human cancer cell lines after 72 h of drug (GDSC screen)
EX-527 = compound: NC(=O)C1CCCc2c1[nH]c1ccc(Cl)cc21 [EX-527]; conditions: top dose 20 µM
Protocol: (§1)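 Human cancer cell lines in 384-well plates, medium with 10% serum, drug for 72 h over a 256-fold dose range (nine 2-fold or five 4-fold steps up to the top dose). Adherent lines were fixed and stained with the nucleic acid dye Syto60, suspension lines read with resazurin; signal relative to control wells, capped at 0 and 100%. One two-parameter sigmoid per drug and line, fitted in a mixed model over all curves with the slope shared within a line.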

AZD6244 = compound: Cn1cnc2c(F)c(Nc3ccc(Br)cc3Cl)c(C(=O)NOCCO)cc21 [AZD6244]; conditions: top dose 4 µM; screen: GDSC drug entry 1498; top dose inferred
Protocol: as §1

YM201636 = compound: Nc1ccc(C(=O)Nc2cccc(-c3nc(N4CCOCC4)c4oc5ncccc5c4n3)c2)cn1 [YM201636]; conditions: top dose 5.12 µM; top dose inferred
Protocol: as §1

AS601245 = compound: N#CC(c1ccnc(NCCc2cccnc2)n1)c1nc2ccccc2s1 [AS601245]; conditions: top dose 8 µM; top dose inferred
Protocol: as §1

SK-MEL-5 (melanoma, adherent)
AUC (EX-527): 0.982 | IC50 (EX-527): > 20 µM | AUC (AZD6244): 0.593 | IC50 (AZD6244): 478 nM | AUC (YM201636): 0.983 | IC50 (YM201636): > 5.12 µM

SK-MEL-28 (melanoma, adherent)
AUC (EX-527): 0.986 | IC50 (EX-527): > 20 µM | AUC (AS601245): 0.941 | IC50 (AS601245): > 8 µM | AUC (YM201636): 0.901 | IC50 (YM201636): > 5.12 µM

SK-MG-1 (glioma, adherent)
AUC (EX-527): 0.987 | IC50 (EX-527): > 20 µM | AUC (AZD6244): 0.954 | IC50 (AZD6244): > 4000 nM | AUC (YM201636): 0.924 | IC50 (YM201636): > 5.12 µM

SNU-61 (large intestine, adherent)
AUC (EX-527): 0.985 | IC50 (EX-527): > 20 µM | AUC (AZD6244): 0.885 | IC50 (AZD6244): > 4000 nM | AUC (YM201636): 0.916 | IC50 (YM201636): > 5.12 µM

SNU-81 (large intestine, adherent)
AUC (EX-527): 0.981 | IC50 (EX-527): > 20 µM | AUC (AZD6244): 0.768 | IC50 (AZD6244): 2010 nM | AUC (YM201636): 0.955 | IC50 (YM201636): > 5.12 µM

SNU-407 (large intestine, adherent)
AUC (EX-527): 0.976 | IC50 (EX-527): > 20 µM | AUC (AZD6244): 0.767 | IC50 (AZD6244): 1730 nM | AUC (YM201636): 0.773 | IC50 (YM201636): 2.34 µM

SNU-475 (liver, adherent)
AUC (EX-527): 0.991 | IC50 (EX-527): > 20 µM | AUC (AS601245): 0.96 | IC50 (AS601245): > 8 µM | AUC (YM201636): 0.767 | IC50 (YM201636): 1.69 µM

SNU-1040 (large intestine, adherent)
AUC (EX-527): 0.976 | IC50 (EX-527): > 20 µM | AUC (AZD6244): 0.96 | IC50 (AZD6244): > 4000 nM | AUC (YM201636): 0.835 | IC50 (YM201636): > 5.12 µM

SNU-C5 (large intestine, adherent)
AUC (EX-527): 0.986 | IC50 (EX-527): > 20 µM | AUC (AZD6244): 0.804 | IC50 (AZD6244): 2260 nM | AUC (YM201636): 0.948 | IC50 (YM201636): > 5.12 µM

STS-0421 (soft tissue, adherent)
AUC (AS601245): 0.828 | IC50 (AS601245): 6.07 µM | AUC (AZD6244): 0.909 | IC50 (AZD6244): > 4000 nM

SU-DHL-10 (B-cell lymphoma, suspension)
AUC (EX-527): 0.998 | IC50 (EX-527): > 20 µM | AUC (AZD6244): 0.996 | IC50 (AZD6244): > 4000 nM | AUC (YM201636): 0.78 | IC50 (YM201636): 1.52 µM

SW1116 (large intestine, adherent)
AUC (EX-527): 0.98 | IC50 (EX-527): > 20 µM | AUC (AZD6244): 0.742 | IC50 (AZD6244): 1610 nM | AUC (YM201636): 0.985 | IC50 (YM201636): > 5.12 µM

SW1417 (large intestine, adherent)
AUC (EX-527): 0.985 | IC50 (EX-527): > 20 µM | AUC (AS601245): 0.951 | IC50 (AS601245): > 8 µM | AUC (YM201636): 0.955 | IC50 (YM201636): > 5.12 µM

TE-4 (oesophagus, adherent)
AUC (EX-527): 0.985 | IC50 (EX-527): > 20 µM | AUC (AZD6244): 0.938 | IC50 (AZD6244): > 4000 nM | AUC (YM201636): 0.983 | IC50 (YM201636): > 5.12 µM

TMK-1 (stomach, adherent)
AUC (EX-527): 0.98 | IC50 (EX-527): > 20 µM | AUC (AS601245): 0.714 | IC50 (AS601245): 2.1 µM | AUC (YM201636): 0.955 | IC50 (YM201636): > 5.12 µM

U-2-OS (osteosarcoma, adherent)
AUC (EX-527): 0.985 | IC50 (EX-527): > 20 µM | AUC (AS601245): 0.973 | IC50 (AS601245): > 8 µM | AUC (AZD6244): 0.842 | IC50 (AZD6244): 3190 nM

UWB1.289 (ovary, adherent)
AUC (EX-527): 0.98 | IC50 (EX-527): > 20 µM | AUC (AZD6244): 0.834 | IC50 (AZD6244): > 4000 nM | AUC (YM201636): 0.838 | IC50 (YM201636): > 5.12 µM

VMRC-RCW (kidney, adherent)
AUC (EX-527): 0.982 | IC50 (EX-527): > 20 µM | AUC (AS601245): 0.72 | IC50 (AS601245): 1.99 µM | AUC (YM201636): 0.929 | IC50 (YM201636): > 5.12 µM

YH-13 (glioma, adherent)
AUC (EX-527): 0.986 | IC50 (EX-527): > 20 µM | AUC (AZD6244): 0.949 | IC50 (AZD6244): > 4000 nM | AUC (YM201636): 0.798 | IC50 (YM201636): 2.59 µM
